Values marked as one replicate rest on one cluster of the flow cell; about a third of the high ones do not repeat.
Tested on: ATP
Assay: switch fluorescence ratio, 500 uM ATP over buffer (Cy3 cluster intensity, sum of 5 cycles each) (fold (ratio)); higher = stronger signal-on switching upon ATP binding; sequences stand for … in TCGTCGGCAGCGTCAGATGTGTATAAGAGACAGTTTTTTTTTTTTTTTTTTTTTTTTT…TC
Conditions: aptamer strand: ATP DNA aptamer (quencher-CACCTGGGGGAGTATTGCGGAGGAAGG + anchor), 100 nM annealed; ATP concentration: 500 uM; one replicate
Procedure, shortened: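 Switching-strand clusters labelled with Cy3 on a modified Illumina MiSeq flow-cell were annealed to 100 nM quencher-labelled ATP aptamer, imaged in selection buffer, and re-imaged after 15 min with 500 uM ATP at 22 °C. This was done over five cycles with NaOH stripping and re-annealing in between. The fluorescence ratio is summed target-cycle over summed buffer-cycle Cy3 intensity per cluster, averaged per switch-domain sequence, excluding clusters outside 100-1000 RFU.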
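Also: ATP exposure 15 min at 22 °C before imaging.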

Sequence | switch fluorescence ratio
TTCAAGAGGT | 1
GGGCACGGCG | 1.04
GCGTATTTTG | 0.975
TAAGCGTCTC | 0.995
CGGACGTTGA | 1.11
TTTTCGCCCA | 1
AGCGATTTGA | 1.01
GAGAGAGAAA | 1
TGGTGGAGAG | 0.983
ATAGTGCGCA | 1
AACCGCAGGG | 1.02
CGAGTGCGCG | 0.924
GAGGAGCGT | 0.977
ACCTTGCGCT | 1.14
GCAAGGACG | 1.01
CTTTGGGGTG | 1.04
TTGTAAT | 0.989
GTCTGGTTTT | 0.974
CTCCAGTAA | 4.98
CTTTGTGCCA | 0.989
TATGCACCGA | 1.09
CCCTCTCATG | 0.982
AATCTGTAGT | 1.03
GACTGTCTGA | 1
GGTTGGAACA | 1.03
TGAACATGCG | 1

Sequence | switch fluorescence ratio
TGTTGCGTCA | 1.04
TGTCATAATT | 0.975
CATTTAAAA | 0.975
ACGACAGTGC | 1.19
GACAAATGCC | 1.02
GTTTGGGAG | 0.944
ATACACTGTA | 1.05
AACGTCTTCT | 0.964
GCTACAACTA | 1.01
GGCCCACCAC | 1
GAATATCCTT | 1.03
TCTCTGGCTG | 1.04
GATAGAGTCA | 0.966
GGACGCAGCT | 1.27
TTTCTTTGGC | 0.974
GGAGTCTCAC | 0.993
GGAAGGGGAG | 1.02
TTTCAGCTGA | 0.983
AGTAATATTG | 1.25
TCGCCCGGGC | 1.03
CATCAAAACG | 0.995
TACATATTAT | 0.979
CGGGTTAAAG | 0.993
ACTAGGGGGT | 1.01
TTCAGGGCCA | 0.99
TGTGCAAGAA | 0.991

Sequence | switch fluorescence ratio
CGTAGGACGT | 1.02
AAATGCTAAG | 0.98
CTGAGTGTAA | 0.998
GCGCACATGG | 1.9
GATGCCAGCT | 1.01
GAAATCGTAT | 1.01
GGTACTAGG | 0.98
AGTACTAATC | 0.987
GTTCTTGGAA | 0.987
AGAAAAATCA | 0.981
TAATATGCGT | 0.996
TTATTCTGAT | 0.98
CCGTCAGGCT | 1
AATGATGAAT | 1.01
ACGGGTAGAT | 1.02
GCTTTATTGA | 0.977
TGCTGAAATA | 1.01
TAGATTGCTG | 1.01
CCTACCGTTG | 1.75
ACTCGCTATA | 3.3
AAGTATTTT | 1.02
CGAATAGGTC | 1
CTCAGAGCTG | 0.972
TATAAGTTCA | 1.01
CCTTCCACCT | 1.4
GAACAGGGCG | 0.977

Sequence | switch fluorescence ratio
TATAAAGCAT | 1.01
ACTCTTAACC | 1.08
TTAGCGTCAG | 1.02
AGTCGGAGCG | 1.01
CCAATAAAT | 0.961
ACTCAGTTGA | 1.03
GACTAACCAG | 1.02
TCGTTCGTGG | 1.02
CTGGGAAAGC | 0.977
TCTATGGGC | 1.01
TCTAGAGGAT | 0.986
CAATTGCTCT | 1.05
TTACCGTGGA | 1.05
CGTGGCCAT | 1
GAATCGCCTC | 1.02
ACGAATTATA | 1.01
TCTAAATTCA | 1.01
TTGGCCCGAG | 0.979
AGCGGCCGTC | 1.06
GGCTTCATGA | 1.04
GAATCCAGGT | 1.09
CAGTGTGTAG | 1.03
GAGTAAAGTA | 0.967

— the supplement of paper PMC10126150
